From PubChem BioAssay AID624171 (National Center for Advancing Translational Sciences (NCATS), 2012)
Screen size: about 410,000 compounds; about 1,200 (0.29%) were called active. The inconclusive results got no clear call from the source; some entries with a clear call stand among them for comparison. Calls come from the whole dose curve; as a rule, active = well fitted activation curve with a large enough effect; inconclusive = small, poorly fitted or top-dose-only effect; inactive = flat fitted curve, though single readings scatter. Potencies beside an inconclusive call are fits to weak or partial responses and may not hold up.

Assay: qHTS of Nrf2 Activators; note: nearly all actives have a fitted effect of over 65% in size; for activation: % of control where 0% means no effect
Settings: AREc32 ARE-luciferase reporter (MCF7-derived line), luminescence, 24 h; activation: at 46.1 µM (top of the series)
Method in brief: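 Quantitative high-throughput format: AREc32 reporter cells, 1000 per well, received compound by pin transfer and were incubated 24 hr at 37 deg C, 5% CO2, before Steady-Glo luminescence detection.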
Potency is the fitted concentration of half-maximal effect; tags give direction and shape of the fitted curve.

| Compound | activation | Potency |
| --- | --- | --- |
| Cc1ccc(S(=O)(=O)c2ncccc2[N+](=O)[O-])cc1 | inactive: 0.463% |  |
| COc1cc(Br)cc2cc(C(=O)OC3CCN(C)CC3)c(=O)oc12 |  | inconclusive: 20 µM [activator, single point] |
| CC(C)(C)c1cc(C(c2cccnc2)N2CCN(CCO)CC2)cc(C(C)(C)C)c1O (stereo not drawn) |  | inconclusive: 17.8 µM [activator, single point] |
| CCOC(=O)c1c(C)oc2nc(C)nc(NCCc3ccc(OCC)cc3)c12 | inactive: 0.517% |  |
| O=C(N=c1nc2ccccn2s1)c1ccccc1 |  | inconclusive: 2.24 µM [activator, full curve, poor fit] |
| CC(C)(C)c1nnc(NC(=O)CCS(=O)(=O)Cc2ccccc2)s1 |  | inconclusive: 20 µM [activator, single point] |
| Cc1cc(Oc2ccc(-c3ccccc3)cc2)n2ncnc2n1 |  | inconclusive: 25.1 µM [activator, single point] |
| Oc1ccccc1CNc1ncc(Br)cc1Br |  | inconclusive: 14.1 µM [activator, partial curve, poor fit] |
| O=C(/C=C/c1ccccc1[N+](=O)[O-])OCC(=O)N1CCCC1 |  | inconclusive: 11.2 µM [activator, single point] |
| CC(C)CC(=O)NN(C)c1nc(-c2ccccc2)nnc1C(F)(F)F | inactive: 0.231% |  |
| O=C(CSc1nccn1Cc1ccco1)Nc1ccc(OC(F)(F)F)cc1 | inactive: 5.58% |  |
| CN(C)S(=O)(=O)c1cccc(C(=O)Nc2ccccc2[N+](=O)[O-])c1 |  | inconclusive: 17.8 µM [activator, partial curve, poor fit] |
| C/C(=C\c1cccc(Cl)c1)C(=O)c1c(C)cc(C)[nH]c1=O |  | inconclusive: 31.6 µM [activator, single point] |
| Nc1ccccc1C#Cc1cnccn1 |  | inconclusive: 11.2 µM [activator, partial curve] |
| CCOC(=O)c1ccccc1OC(=O)CS(=O)c1ccccc1[N+](=O)[O-] (stereo not drawn) |  | inconclusive: 14.1 µM [activator, single point] |
| COc1ccc(NC(=O)CSc2nncn3c2cc2occc23)c(OC)c1 |  | inconclusive: 28.2 µM [activator, single point] |
| Cc1nc(NC(=O)/C=C/c2ccco2)sc1C |  | inconclusive: 0.316 µM [activator, full curve, poor fit] |
| O=C(Oc1ccc(Cl)c2cccnc12)c1cccnc1 |  | inconclusive: 15.8 µM [activator, single point] |
| O=C(N/N=C/C=C/c1ccc([N+](=O)[O-])cc1)c1cccs1 |  | inconclusive: 22.4 µM [activator, single point] |
| O=C(CN1CCCC1)Nc1nnc(-c2cccs2)s1 |  | active: 11.2 µM |
| Cc1ccc2sc(N(CCN(C)C)C(=O)/C=C/c3cccs3)nc2c1C |  | inconclusive: 3.55 µM [activator, partial curve, poor fit] |
| COc1ccc(OC)c(-c2cc(C(=O)NCc3cccs3)no2)c1 |  | inconclusive: 28.2 µM [activator, single point] |
| CN(C)/C=C/C(=O)c1ccc(Cl)c([N+](=O)[O-])c1 |  | active: 12.6 µM |
| Cc1[nH]c(=O)c(C(=O)/C=C/c2ccccc2F)c2c1CCCC2 |  | inconclusive: 3.16 µM [activator, single point] |
| O=C1Nc2cc(C(=O)N3CCOCC3)ccc2S/C1=C\c1ccccc1 | inactive: 6.72% |  |

| Compound | activation | Potency |
| --- | --- | --- |
| COC(=O)C(=Cc1ccc(-c2ccsc2C(=O)OC)o1)C(=O)OC |  | active: 12.6 µM |
| COc1ccc(OC)c(NC(=O)NC2(C(F)(F)F)Oc3ccccc3O2)c1 |  | inconclusive: 31.6 µM [activator, single point] |
| CCCN(C(=O)c1ccco1)c1nnc(-c2ccncc2)s1 |  | inconclusive: 8.91 µM [activator, partial curve] |
| CCOC(=O)c1c(C)oc2nc(C)nc(NCCc3ccc(Cl)cc3)c12 | inactive: 0.413% |  |
| Cc1cc(N)ccc1NC(=O)c1ccccc1 | inactive: 0.205% |  |
| CCOc1ccc(NCCC(=O)c2ccc3c(c2)OCO3)cc1 |  | inconclusive: 31.6 µM [activator, single point] |
| O=C(NC1CCCC1)C(c1ccc(Cl)cc1)N(Cc1ccc(F)cc1)C(=O)CCl (stereo not drawn) | inactive: -0.284% |  |
| CCc1cc(C)cc(OCCOc2ccccc2/C=N/NC(C)=O)c1 | inactive: 0.728% |  |
| COC(=O)c1c(NC(=O)/C=C/C(=O)O)sc(C)c1-c1ccc(C(C)C)cc1 |  | active: 10 µM |
| Cc1cc(C)c2nc(-c3ccccc3)ccc2c1 |  | inconclusive: 14.1 µM [activator, single point] |
| CCN1/C(=C/C=C/c2oc3ccc(-c4ccccc4)cc3[n+]2CC)Oc2ccc(-c3ccccc3)cc21 | inactive: -2.03% |  |
| Fc1ccccc1-c1csc(-c2cccnc2)n1 |  | inconclusive: 14.1 µM [activator, single point] |
| O=C(O)/C=C\C(=O)NNC(=O)c1cc(-c2ccccc2)n[nH]1 | inactive: -0.582% |  |
| Cc1ccccc1Nc1c(-c2c[nH]c3ccccc23)nc2ccc(Cl)cn12 |  | inconclusive: 11.2 µM [activator, partial curve, poor fit] |
| COc1cc(OC)cc(C(=O)NNC(=O)c2ccccn2)c1 |  | inconclusive: 35.5 µM [activator, single point] |
| O=C(CSc1ccc2ccccc2c1)NCCc1ccc(O)c(O)c1 |  | inconclusive: 15.8 µM [activator, single point] |
| Cc1ccccc1S(=O)Cc1ccc(C(=O)NCc2ccccc2Cl)o1 (stereo not drawn) | inactive: -0.692% |  |
| CCc1ccc(C(=O)Cn2ccsc2=N)cc1 |  | inconclusive: 2.51 µM [activator, full curve, poor fit] |
| CC(C)C(=O)Nc1cccc2nsnc12 |  | inconclusive: 28.2 µM [activator, single point] |
| S=C(c1cn(CCOc2cccc3ccccc23)c2ccccc12)N1CCCC1 | inactive: 2.91% |  |
| Cn1c2ccccc2c(=O)c2cc(C#Cc3ccccn3)ccc21 |  | inconclusive: 2.51 µM [activator, full curve, poor fit] |
| Cc1[nH]c(=O)c(C(=O)c2cc(Cl)ccc2O)cc1C(=O)O | inactive: 0.431% |  |
| COc1cc(O)c2c(=O)cc(-c3ccccc3)oc2c1 |  | inconclusive: 35.5 µM [activator, single point] |
| C=CCNC1=C(Cl)C(=O)c2ccccc2C1=O |  | inconclusive: 3.16 µM [activator, single point] |
| O=C(Oc1ccc(F)cc1C(=O)/C=C/c1cccs1)c1cccc([N+](=O)[O-])c1 |  | inconclusive: 17.8 µM [activator, single point] |

| Compound | activation | Potency |
| --- | --- | --- |
| COc1cccc(N2CC(C(=O)Nc3nnc(SCc4cccnc4)s3)CC2=O)c1 (stereo not drawn) | inactive: -0.0157% |  |
| Oc1c(Br)cc(Br)cc1C=NCc1ccc(F)cc1 | inactive: 0.231% [at 9.22 µM] |  |
| Cc1cccc(C(=O)NCCc2nc3ccccc3n2CCC(C)C)c1 | inactive: 3.81% |  |
| CC(C)c1ccc(/C=C2\SC(=O)N(CC(=O)NC3C=CS(=O)(=O)C3)C2=O)cc1 (stereo not drawn) |  | inconclusive: 15.8 µM [activator, single point] |
| COc1cccc(-c2cc3c(-n4cccc4)ncnc3o2)c1 |  | inconclusive: 2.24 µM [activator, full curve, poor fit] |
| Cc1ccccc1N1CCN(C(=S)c2ccc(-c3cccc([N+](=O)[O-])c3)o2)CC1 |  | inconclusive: 12.6 µM [activator, single point] |
| Cc1ccc(S(=O)(=O)Nn2c(O)c(C=C3N=c4ccccc4=N3)sc2=S)cc1 |  | inconclusive: 35.5 µM [activator, partial curve, poor fit] |
| COC(=O)c1c(NC(=O)CCl)sc(C(=O)N2CCOCC2)c1C |  | inconclusive: 11.2 µM [activator, partial curve] |
| CC(C)NC(=O)COC(=O)/C=C/c1ccco1 |  | inconclusive: 14.1 µM [activator, single point] |
| CCOc1ccc(S(=O)(=O)Nc2cccc(C(=O)NCC(c3ccc(OC)cc3)N3CCOCC3)c2)cc1 (stereo not drawn) | inactive: 0.189% |  |
| COc1ccccc1C(=O)O/N=C(\N)c1ccc(Cl)cc1 |  | inconclusive: 3.98 µM [activator, full curve] |
| Brc1ccsc1/C=N/Nc1ccccc1 |  | inconclusive: 11.2 µM [activator, partial curve, poor fit] |
| COc1ccccc1NC(=O)c1ncn(-c2ccccc2)n1 |  | inconclusive: 5.62 µM [activator, partial curve] |
| Cc1ccc(Nc2nc(Cl)nc(N(C)C#N)n2)cc1 |  | inconclusive: 20 µM [activator, single point] |
| CC1(C)Cc2ccccc2C2=NNC(=O)C2=N1 |  | inconclusive: 3.98 µM [activator, single point] |
| Cc1[nH]nc(N=CC2=C(O)CC(c3ccco3)CC2=O)c1-c1ccc(Cl)cc1 (stereo not drawn) |  | inconclusive: 12.6 µM [activator, partial curve] |
| Cc1nn(CCOc2ccccc2)c(=O)n1-c1cccc(F)c1 | inactive: 0.757% |  |
| O=C(c1ccc(S(=O)(=O)Cc2cc(F)ccc2F)c([N+](=O)[O-])c1)N1CCOCC1 |  | active: 12.6 µM |
| CCc1ccccc1NC(=O)c1sc2nc(C)cc(C)c2c1N | inactive: 2.08% |  |
| COc1ccc(Cl)cc1NC(=O)COC(=O)/C=C/c1c(C)nn(C2CCS(=O)(=O)C2)c1Cl (stereo not drawn) | inactive: 2.67% |  |
| O=C(/C=C/c1ccco1)NC(=S)Nc1ccccc1N1CCCC1 |  | inconclusive: 2.51 µM [activator, full curve, poor fit] |
| COc1cc2cc(C(c3nnnn3C(C)(C)C)N3CCC(C)CC3)c(=O)[nH]c2cc1OC (stereo not drawn) | inactive: 0.228% |  |
| COc1ccc(NC(=O)c2sc(SC)nc2N)cc1 |  | inconclusive: 11.2 µM [activator, partial curve, poor fit] |
